Test results reported in PubChem BioAssay AID1476 (National Center for Advancing Translational Sciences (NCATS), 2009).
Hit rate of the full screen: of about 200,000 compounds, about 4,500 (2.2%) were called active. The inconclusive results got no clear call from the source; some entries with a clear call stand among them for comparison. The call rests on the fitted dose curve; in most records, active means well fitted inhibition curve with a large enough effect; inconclusive means small, poorly fitted or top-dose-only effect, or effect the other way; inactive means flat fitted curve, though single readings scatter. Potencies beside an inconclusive call are fits to weak or partial responses and may not hold up.

What follows are compounds tested against Cruzipain (Trypanosoma cruzi) (UniProt P25779) (assay: qHTS Assay for Promiscuous and Specific Inhibitors of Cruzain (without detergent)). Details: purified cruzain, Z-FR-AMC fluorescence, no detergent.
Chain of UniProt P25779 (P25779 whole entry, looked up): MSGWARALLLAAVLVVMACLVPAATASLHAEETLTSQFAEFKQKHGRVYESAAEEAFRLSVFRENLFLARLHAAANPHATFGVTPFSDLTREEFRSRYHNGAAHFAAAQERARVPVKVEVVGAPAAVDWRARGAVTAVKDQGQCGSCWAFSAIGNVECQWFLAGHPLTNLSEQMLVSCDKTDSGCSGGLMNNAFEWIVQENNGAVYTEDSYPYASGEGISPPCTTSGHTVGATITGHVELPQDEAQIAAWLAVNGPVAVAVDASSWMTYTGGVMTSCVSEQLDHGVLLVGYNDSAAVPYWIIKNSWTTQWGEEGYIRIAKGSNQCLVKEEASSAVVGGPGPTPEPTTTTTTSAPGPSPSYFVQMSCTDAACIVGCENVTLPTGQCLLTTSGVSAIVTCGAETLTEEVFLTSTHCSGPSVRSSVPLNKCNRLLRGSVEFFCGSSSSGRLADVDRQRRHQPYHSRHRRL
How it was run: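 Purified cruzain at 1.5 nM, pre-incubated 15 min with compound at room temperature in 100 mM sodium acetate pH 5.5, 5 mM DTT, 0.00005% Triton X-100. Reaction started with 2 uM Z-FR-AMC; AMC fluorescence increase over 60 s gives rate.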
Further: nearly all actives have a fitted effect of over 40% in size.
Potency means the concentration at half of the fitted maximal effect; tags describe the fitted curve by direction and shape.
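Wherever max response, negative = inhibition is given: plate controls were enzyme without inhibitor for no effect and buffer without enzyme for full effect.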

Row | SMILES | Potency | max response, negative = inhibition
1 | Cc1ccc(-c2csc(NC(=O)c3ccc(-c4ccccc4)cc3)n2)o1 | inconclusive: 25.1 µM [inhibitor, single point] | –
2 | COc1ccccc1-c1nn2c(=O)cc(CN3CCN(S(=O)(=O)c4ccc(C)cc4)CC3)nc2s1 | – | inactive: -8.42%
3 | COc1ccc(CNC(=O)COC(=O)CCCOc2ccc(Cl)cc2Cl)cc1 | inconclusive: 39.8 µM [activator, single point] | –
4 | Cc1ccsc1C(=O)N(c1nc2ccccc2s1)c1c(C)cccc1C | inconclusive: 39.8 µM [inhibitor, single point] | –
5 | COC(=O)c1ccc(C(NC(=O)OCc2ccccc2)/C(C)=C/[C@@H](C)C(=O)Nc2ccc(OC)cc2)cc1 (stereo partly drawn) | inconclusive: 31.6 µM [activator, single point] | –
6 | O=C(Nc1ccc(S(=O)(=O)N2CCCC2)cc1)c1ccc2c(=O)n3c(nc2c1)CCCCC3 | inconclusive: 39.8 µM [activator, single point] | –
7 | Cc1cccn2c(=O)c3cc(C(=O)NC(C)C)n(C)c3nc12 | inconclusive: 31.6 µM [activator, single point] | –
8 | COCCNC(=O)CSc1nc2ccc(N3CCOCC3)cc2c(=O)n1CCc1ccccc1 | inconclusive: 31.6 µM [activator, single point] | –
9 | COc1cc2c(C(=O)N3CCN(c4cccc(Cl)c4)CC3)cn(C)c(=O)c2cc1OC | inconclusive: 31.6 µM [activator, single point] | –
10 | O=C(Nc1cccc(Br)c1)Nc1nc2c(s1)CCCCCC2 | – | inactive: 8.46%
11 | Cc1c(Cl)cccc1NC(=O)c1cc(-c2cccc(Cl)c2)on1 | – | inactive: -11.8%
12 | CC(C)C(=O)Nc1ccccc1C(=O)OCc1cc(=O)n2nc(C3CC3)sc2n1 | – | inactive: 1.84%
13 | CCC(Sc1nc2cc3c(cc2c(=O)n1CCCCCC(=O)NCc1ccc2c(c1)OCO2)OCO3)C(=O)NCCCOC (stereo not drawn) | – | inactive: 13.7%
14 | Cc1cccc(OCCn2c(SCC(N)=O)nc3ccccc32)c1 | inconclusive: 31.6 µM [activator, partial curve] | –
15 | CCc1noc(-c2ccc(N3CCC(C)CC3)c([N+](=O)[O-])c2)n1 | – | inactive: 6.26%
16 | Cc1nn2c(=O)cc(COC(=O)c3ccc(NC(=O)CCc4ccccc4)cc3)nc2s1 | – | inactive: -13.8%
17 | c1csc(C2Nc3cccc4cccc(c34)N2)c1 | active: 7.94 µM | –
18 | NC1(C(=O)NC2(C(=O)O)CCCC2)CCCC1 | – | inactive: -1.5%
19 | CCc1ccc(CN(Cc2ccco2)c2cnc(S(C)(=O)=O)nc2C(=O)Nc2ccc(C)c(Cl)c2)cc1 | inconclusive: 3.16 µM [inhibitor, single point] | –
20 | COc1cc(OC)c(C(=O)NCc2nc(-c3ccccc3)no2)cc1OC | inconclusive: 39.8 µM [activator, single point] | –
21 | O=C(Nc1cc(Cl)cc(Cl)c1)c1ccc(F)c(S(=O)(=O)N2CCCC2)c1 | active: 25.1 µM | –
22 | COC(=O)[C@@]1(Cc2ccc(OC)cc2)[C@H]2c3cc(C(=O)N4CCCC4)n(Cc4ccsc4Br)c3C[C@H]2CN1C(=O)c1ccccc1 | inconclusive: 39.8 µM [activator, single point] | –

Row | SMILES | Potency | max response, negative = inhibition
23 | O=C(Cn1nnc(-c2ccc(C(F)(F)F)cc2)n1)NCCc1ccccc1 | – | inactive: -15.5%
24 | COC(=O)c1ccc(-n2c(C)cc(C(=O)CSc3ccc(NC(C)=O)cc3)c2C)cc1 | inconclusive: 39.8 µM [activator, single point] | –
25 | COc1ccc(Cn2c(CCC(=O)Nc3ccc(Br)c(C)c3)nc3cccnc32)cc1 | – | inactive: -2.25%
26 | CCCCCn1c(=O)[nH]c2cc(C(=O)N3CCN(c4ccc(OC)cc4)CC3)ccc2c1=O | – | inactive: -5.97%
27 | O=C(Cn1cnc2c(nnn2Cc2ccc(F)cc2)c1=O)OCc1ccccc1 | – | inactive: 14.4%
28 | O=[N+]([O-])c1ccc(-c2cn(-c3ccc(Cl)cc3)c(=S)[nH]2)cc1 | inconclusive: 25.1 µM [inhibitor, single point] | –
29 | O=C(COc1ccc(Cl)cc1)NCCc1csc(-c2ccc(C(F)(F)F)cc2)n1 | inconclusive: 39.8 µM [activator, single point] | –
30 | COc1cccc(N=Nc2c(N)[nH]n3c(=O)cc(-c4ccccc4)nc23)c1 | active: 12.6 µM | –
31 | CCc1ccc(NC(=O)CSc2nnc(Cc3cccn3C)n2-c2ccc(F)cc2)cc1 | inconclusive: 39.8 µM [activator, single point] | –
32 | CC(=O)C1=C(C)NC(SCC(=O)Nc2nc3ccccc3s2)=C(C#N)C1c1ccc(Cl)cc1 (stereo not drawn) | inconclusive: 39.8 µM [inhibitor, single point] | –
33 | CCOc1cc(CNCCSc2nnnn2C)ccc1OCc1ccc(Cl)cc1Cl | – | inactive: 13.7%
34 | CCc1nnc(NC(=O)c2cc3ccccc3oc2=O)s1 | inconclusive: 0.794 µM [inhibitor, full curve, poor fit] | –
35 | O=C(CSc1nc2ccccc2c(=O)n1NC(=O)c1ccccc1)c1ccccc1 | inconclusive: 39.8 µM [inhibitor, single point] | –
36 | CCc1ccc(N(C(=O)Cc2cccs2)C(C(=O)NC2CCCCC2)c2cn(C)nc2C)cc1 (stereo not drawn) | inconclusive: 31.6 µM [activator, single point] | –
37 | Cc1ccc(S(=O)(=O)CCC(=O)OCC(=O)N2CC(=O)Nc3ccccc32)cc1 | – | inactive: 2.89%
38 | Cc1ccc(CNC(=O)c2cc3cc(C)ccc3n2C)cc1 | inconclusive: 3.16 µM [inhibitor, single point] | –
39 | COc1ccc(Cl)cc1NC(=O)Nc1ccc(Br)cn1 | active: 12.6 µM | –
40 | COc1ccc(CN2C(=O)N(c3cccc(C)c3)C(=O)C2CC(=O)Nc2ccc(F)cc2)cc1OC (stereo not drawn) | – | inactive: 7.54%
41 | COC(=O)c1ccc(C(NC(=O)OCc2ccccc2)/C(C)=C/[C@@H](C)C(=O)NCc2nn(-c3ccccc3)nc2C)cc1 (stereo partly drawn) | – | inactive: 2.27%
42 | CC1(C)C(=O)NC2=C1C(=O)C(=O)c1ccccc12 | inconclusive: 25.1 µM [inhibitor, partial curve, poor fit] | –
43 | Cc1cc(O)ccc1Nc1nc(-c2sc(N)nc2C)cs1 | inconclusive: 15.8 µM [inhibitor, partial curve, poor fit] | –
